We go through 22 compounds from PMC12040169 (PLOS Biology, 2025).

The other results are listed elsewhere or left out.

For the test, the system named is T1, C. trachomatis L2/434/Bu expressing GFP (CTL2-GFP).
T1 construct: L2/434/Bu GFP intracellular growth in HeLa cells
Also on record: species or system HeLa; C. trachomatis total inclusion area by high-content imaging, normalised to DMSO. The following applies: total inclusion area; 28.5 h, 10 µM; inhibitor. The method in brief: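 Following bulk GFP and resorufin fluorescence reads, infected cells were fixed, Hoechst-stained and imaged on a high-content platform. Inclusion total area and number per well served as growth proxies; nuclei counts indicated host viability. MICs were derived as for the fluorescence assay.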
Turning to `Cc1noc(NS(=O)(=O)c2ccc(NC(=O)/C=C/c3ccc(Cl)cc3Cl)cc2)c1C` [CBK263115], the “% of control remaining” value was 85.4115. To `Cc1nc(N2CCN(C)CC2)ncc1C(=O)NCCSc1cnn[nH]1` [CBK306623] belongs 53.8951; to `Cc1ccc(S(=O)(=O)N(CC(=O)NC2CCCC2)Cc2ccccc2)cc1` [CBK263166], 91.8523; to `CN(Cc1ccccc1)C1(O)C(=O)Nc2ccc(Cl)cc21` (stereo not shown) [CBK269703], 43.6002. To `O=c1[nH]c2ccccc2n1CCCN1CCC2(CC1)CN(CCO)c1ccccc12` [CBK137133] belongs 68.3391. For the compound `O=C(O)c1cc(NC(=O)C(c2ccccc2)c2ccccc2)cc(C(=O)O)c1` [CBK261191], the “% of control remaining” value is reported as 82.1466.

For `O=[N+]([O-])c1ccc(NC(c2ccccc2)C2CC2)nc1` (stereo not shown) [CBK295317], the “% of control remaining” value is 96.7814. The figure for `Cc1cc(-c2nccnc2NCCCN2CCOCC2)cc(C)c1O` [CBK036598] is 107.859; for `Cc1cccc(=O)n1CCCn1cnc2nccnc2c1=O` [CBK307186] it is 67.1898; for `Cc1ccc(Cn2ncc3c(N4CCCC4)ncnc32)cc1` [CBK287601] it is 88.7391. The figure for `O=C(CSc1ccc2ccccc2c1)NCc1ccco1` [CBK269699] is 83.1071; for `CCC(=O)N1CCC2(CC1)CNC(=O)c1cc(C)ccc1O2` [CBK282468] it is 112.482; for `CCN1CCN(S(=O)(=O)c2cccc3c(S(=O)(=O)N4CCN(CC)CC4)cccc23)CC1` [CBK269611] it is 104.693. To `Cc1nc(C)n(CC2CCCCN2Cc2cn3ccccc3n2)n1` (stereo not shown) [CBK304008] belongs 81.7049; to `O=S(=O)(NCc1ccccc1)c1ccc(Cl)c(S(=O)(=O)NCc2ccccc2)c1` [CBK263251], 65.6379. As for `O=C(Cn1cccc(C(=O)NCc2ccccc2)c1=O)NC1(c2ccccc2)CCCC1` [CBK286058], the “% of control remaining” value is 101.891. To `COc1cc(Cc2c(OCCN(C)C)nc3ccccn3c2=O)cc(OC)c1OC` [CBK005004C] belongs 107.407; to `NC(=O)c1ccc(NC(=O)N2CCc3ccccc3C2)cc1` [CBK155299], 87.1337. To `Cn1c(=O)c2c(ncn2Cc2noc(-c3ccoc3)n2)n(C)c1=O` [CBK304945] belongs 82.8086. Consider `NS(=O)(=O)c1ccc(NC(=O)/C(=C/c2ccc(Br)cc2)NC(=O)c2ccccc2)cc1` [CBK262109], for which the “% of control remaining” value stood at 62.3693. As to `CN(C(=O)C1CCN(C(=O)c2ccoc2)CC1)C(c1ccc(F)cc1)c1ccccn1` (stereo not shown) [CBK060206], the “% of control remaining” value worked out at 104.321. The figure for `CC(C)c1cc(C(C)C)c(S(=O)(=O)n2cnc3c2c(=O)[nH]c(=O)n3C)c(C(C)C)c1` [CBK018772] is 28.7779.
